{
  "source": "patent US20180030500A1",
  "about": "“ENRICHMENT AND SELECTIVE CULTURE OF MYCOBACTERIA” (priority 2015, published 2018)",
  "test_system": "Other non-fermentative bacteria",
  "conditions": "10 strains, 7 days",
  "key": {"[1]": {"conditions": "selective agent 32 mg/l in medium L"}, "[2]": {"conditions": "selective agent 64 mg/l in medium L"}, "[3]": {"conditions": "selective agent 128 mg/l in medium L"}, "[4]": {"conditions": "selective agent 400 mg/l in medium L"}, "[5]": {"conditions": "selective agent 800 mg/l in medium L"}, "[6]": {"conditions": "selective agent 1600 mg/l in medium L"}, "[7]": {"conditions": "selective agent 0.125 mg/l in medium L"}, "[8]": {"conditions": "selective agent 0.25 mg/l in medium L"}, "[9]": {"conditions": "selective agent 0.5 mg/l in medium L"}, "[10]": {"conditions": "selective agent 16 mg/l in medium L"}, "[11]": {"conditions": "selective agent 2.5 mg/l in medium L"}, "[12]": {"conditions": "selective agent 5.0 mg/l in medium L"}, "[13]": {"conditions": "selective agent 10 mg/l in medium L"}},
  "note": "Where two headings read alike, the source gives them in different places.",
  "data": [
    {"compound": "CCN(CC)c1ccc(C2(Cl)c3ccccc3N(c3ccccc3)c3ccccc32)cc1", "note": "[Medium C-390, 9-chloro-9-(4′-diethylamino)phenyl-9,10-dihydro-10-phenylacridine]", "values": [
      {"measurement": "Number of strains having shown growth", "setting": "[1]", "result": 7},
      {"measurement": "Percentage of strains having shown growth", "setting": "[1]", "result": "(70%)"},
      {"measurement": "Number of strains having shown growth", "setting": "[2]", "result": 4},
      {"measurement": "Percentage of strains having shown growth", "setting": "[2]", "result": "(40%)"},
      {"measurement": "Number of strains having shown growth", "setting": "[3]", "result": 2},
      {"measurement": "Percentage of strains having shown growth", "setting": "[3]", "result": "(20%)"}
    ]},
    {"compound": "C[C@@H]1O[C@@H]1P(=O)(O)O", "note": "[fosfomycin]", "values": [
      {"measurement": "Number of strains having shown growth", "setting": "[4]", "result": 6},
      {"measurement": "Percentage of strains having shown growth", "setting": "[4]", "result": "(60%)"},
      {"measurement": "Number of strains having shown growth", "setting": "[5]", "result": 6},
      {"measurement": "Percentage of strains having shown growth", "setting": "[5]", "result": "(60%)"},
      {"measurement": "Number of strains having shown growth", "setting": "[6]", "result": 5},
      {"measurement": "Percentage of strains having shown growth", "setting": "[6]", "result": "(50%)"}
    ]},
    {"compound": "CN(C)c1ccc(C(=C2C=CC(=[N+](C)C)C=C2)c2ccccc2)cc1", "note": "[malachite green]", "values": [
      {"measurement": "Number of strains having shown growth", "setting": "[7]", "result": 10},
      {"measurement": "Percentage of strains having shown growth", "setting": "[7]", "result": "(100%)"},
      {"measurement": "Number of strains having shown growth", "setting": "[8]", "result": 10},
      {"measurement": "Percentage of strains having shown growth", "setting": "[8]", "result": "(100%)"},
      {"measurement": "Number of strains having shown growth", "setting": "[9]", "result": 10},
      {"measurement": "Percentage of strains having shown growth", "setting": "[9]", "result": "(100%)"}
    ]},
    {"compound": "CCn1cc(C(=O)O)c(=O)c2ccc(C)nc21", "note": "[nalidixic acid]", "values": [
      {"measurement": "Number of strains having shown growth", "setting": "[10]", "result": 10},
      {"measurement": "Percentage of strains having shown growth", "setting": "[10]", "result": "(100%)"},
      {"measurement": "Number of strains having shown growth", "setting": "[1]", "result": 10},
      {"measurement": "Percentage of strains having shown growth", "setting": "[1]", "result": "(100%)"},
      {"measurement": "Number of strains having shown growth", "setting": "[2]", "result": 10},
      {"measurement": "Percentage of strains having shown growth", "setting": "[2]", "result": "(100%)"}
    ]},
    {"compound": "CN[C@H](CC(C)C)C(=O)N[C@H]1C(=O)N[C@@H](CC(N)=O)C(=O)N[C@H]2C(=O)N[C@H]3C(=O)N[C@H](C(=O)N[C@H](C(=O)O)c4cc(O)cc(O)c4-c4cc3ccc4O)[C@H](O)c3ccc(c(Cl)c3)Oc3cc2cc(c3O[C@@H]2O[C@H](CO)[C@@H](O)[C@H](O)[C@H]2O[C@H]2C[C@](C)(N)[C@H](O)[C@H](C)O2)Oc2ccc(cc2Cl)[C@H]1O", "note": "[vancomycin]", "values": [
      {"measurement": "Number of strains having shown growth", "setting": "[11]", "result": 9},
      {"measurement": "Percentage of strains having shown growth", "setting": "[11]", "result": "(90%)"},
      {"measurement": "Number of strains having shown growth", "setting": "[12]", "result": 9},
      {"measurement": "Percentage of strains having shown growth", "setting": "[12]", "result": "(90%)"},
      {"measurement": "Number of strains having shown growth", "setting": "[13]", "result": 9},
      {"measurement": "Percentage of strains having shown growth", "setting": "[13]", "result": "(90%)"}
    ]},
    {"compound": "colistin methanesulfonate", "values": [
      {"measurement": "Number of strains having shown growth", "setting": "[1]", "result": 10},
      {"measurement": "Percentage of strains having shown growth", "setting": "[1]", "result": "(100%)"},
      {"measurement": "Number of strains having shown growth", "setting": "[2]", "result": 10},
      {"measurement": "Percentage of strains having shown growth", "setting": "[2]", "result": "(100%)"},
      {"measurement": "Number of strains having shown growth", "setting": "[3]", "result": 10},
      {"measurement": "Percentage of strains having shown growth", "setting": "[3]", "result": "(100%)"}
    ]}
  ]
}
